# Test results reported in the supplement of paper PMC8728848.
# The list shows a part of the results.
# Assays:
# Experiment in all cases: glycan array binding signal (z-score within array); higher = stronger binding
# Settings in all cases: glycan notation: IUPAC condensed, linker removed
# [1] = target: Fuc(a1-2)Gal(b1-4)GlcNAc(b1-3)Gal(b1-4)GlcNAc(b1-3)Gal(b1-4)GlcNAc
# Procedure, shortened: (§1)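 Glycan array data were curated from 3228 arrays in the Consortium for Functional Glycomics database and kept only where the protein sequence was available. Glycan names were converted to IUPAC-condensed notation, and columns mapping to the same glycan were averaged. The binding signal is a within-array Z-score, averaged across arrays of the same protein sequence at different concentrations or buffers and across linkers. Negative Z-scores can be read as non-binding.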
# [2] = target: Fuc(a1-2)Gal(b1-4)GlcNAc(b1-3)GalNAc
# Procedure, shortened: as §1
# [3] = target: Fuc(a1-2)Gal(b1-4)GlcNAc(b1-3)[Fuc(a1-2)Gal(b1-4)GlcNAc(b1-6)]GalNAc
# Procedure, shortened: as §1
# [4] = target: Fuc(a1-2)Gal(b1-4)GlcNAc(b1-3)[Fuc(a1-3)[Gal(b1-4)]GlcNAc(b1-6)]Gal(b1-4)Glc
# Procedure, shortened: as §1
# [5] = target: Fuc(a1-2)Gal(b1-4)GlcNAc(b1-6)GalNAc
# Procedure, shortened: as §1
# [6] = target: Fuc(a1-2)Gal(b1-4)GlcNAc6S
# Procedure, shortened: as §1
# [7] = target: Fuc(a1-2)Gal(b1-4)[Fuc(a1-3)]GlcNAc
# Procedure, shortened: as §1
# [8] = target: Fuc(a1-2)Gal(b1-4)[Fuc(a1-3)]GlcNAc(b1-2)Man(a1-3)[Fuc(a1-2)Gal(b1-4)[Fuc(a1-3)]GlcNAc(b1-2)Man(a1-6)]Man(b1-4)GlcNAc(b1-4)[Fuc(a1-6)]GlcNAc
# Procedure, shortened: as §1
# [9] = target: Fuc(a1-2)Gal(b1-4)[Fuc(a1-3)]GlcNAc(b1-2)[Fuc(a1-2)Gal(b1-4)[Fuc(a1-3)]GlcNAc(b1-4)]Man(a1-3)[Fuc(a1-2)Gal(b1-4)[Fuc(a1-3)]GlcNAc(b1-2)Man(a1-6)]Man(b1-4)GlcNAc(b1-4)GlcNAc
# Procedure, shortened: as §1
# [10] = target: Fuc(a1-2)Gal(b1-4)[Fuc(a1-3)]GlcNAc(b1-3)Gal(b1-4)[Fuc(a1-3)]GlcNAc
# Procedure, shortened: as §1
# [11] = target: Fuc(a1-2)Gal(b1-4)[Fuc(a1-3)]GlcNAc(b1-3)Gal(b1-4)[Fuc(a1-3)]GlcNAc(b1-3)Gal(b1-4)[Fuc(a1-3)]GlcNAc
# Procedure, shortened: as §1
# [12] = target: Fuc(a1-2)Gal(b1-4)[Fuc(a1-3)]GlcNAc(b1-3)GalNAc
# Procedure, shortened: as §1
# [13] = target: Fuc(a1-2)Gal(b1-4)[Fuc(a1-3)]GlcNAc(b1-3)[Neu5Ac(a2-6)Gal(b1-4)GlcNAc(b1-6)]Gal(b1-4)Glc
# Procedure, shortened: as §1
# [14] = target: Fuc(a1-2)Gal3S(b1-4)GlcNAc
# Procedure, shortened: as §1
# [15] = target: Fuc(a1-2)Gal6S(b1-3)GlcNAc
# Procedure, shortened: as §1
# [16] = target: Fuc(a1-2)Gal6S(b1-3)GlcNAc6S
# Procedure, shortened: as §1
# [17] = target: Fuc(a1-2)Gal6S(b1-4)Glc
# Procedure, shortened: as §1
# [18] = target: Fuc(a1-2)Gal6S(b1-4)Glc6S
# Procedure, shortened: as §1
# [19] = target: Fuc(a1-2)[Gal(a1-3)]Gal
# Procedure, shortened: as §1
# [20] = target: Fuc(a1-2)[Gal(a1-3)]Gal(b1-3)GalNAc
# Procedure, shortened: as §1
# [21] = target: Fuc(a1-2)[Gal(a1-3)]Gal(b1-3)GalNAc(b1-3)Gal(a1-4)Gal(b1-4)Glc
# Procedure, shortened: as §1
# [22] = target: Fuc(a1-2)[Gal(a1-3)]Gal(b1-3)GlcNAc
# Procedure, shortened: as §1
# [23] = target: Fuc(a1-2)[Gal(a1-3)]Gal(b1-3)GlcNAc(b1-2)Man(a1-3)[Fuc(a1-2)[Gal(a1-3)]Gal(b1-3)GlcNAc(b1-2)Man(a1-6)]Man(b1-4)GlcNAc(b1-4)GlcNAc
# Procedure, shortened: as §1
# [24] = target: Fuc(a1-2)[Gal(a1-3)]Gal(b1-3)GlcNAc(b1-2)Man(a1-3)[Fuc(a1-2)[Gal(a1-3)]Gal(b1-3)GlcNAc(b1-2)Man(a1-6)]Man(b1-4)GlcNAc(b1-4)[Fuc(a1-6)]GlcNAc
# Procedure, shortened: as §1
# [25] = target: Fuc(a1-2)[Gal(a1-3)]Gal(b1-3)GlcNAc(b1-3)GalNAc
# Procedure, shortened: as §1
# [26] = target: Fuc(a1-2)[Gal(a1-3)]Gal(b1-3)GlcNAc(b1-6)GalNAc
# Procedure, shortened: as §1
# [27] = target: Fuc(a1-2)[Gal(a1-3)]Gal(b1-4)Glc
# Procedure, shortened: as §1
# [28] = target: Fuc(a1-2)[Gal(a1-3)]Gal(b1-4)GlcNAc
# Procedure, shortened: as §1
# [29] = target: Fuc(a1-2)[Gal(a1-3)]Gal(b1-4)GlcNAc(b1-2)Man
# Procedure, shortened: as §1
# [30] = target: Fuc(a1-2)[Gal(a1-3)]Gal(b1-4)GlcNAc(b1-2)Man(a1-3)[Fuc(a1-2)[Gal(a1-3)]Gal(b1-4)GlcNAc(b1-2)Man(a1-6)]Man(b1-4)GlcNAc(b1-4)GlcNAc
# Procedure, shortened: as §1
binder,measurement,setting,value
PX9937D-bvu-500-26-500 (Bacteroides vulgatus) (protein) DPVSDITDLNYWKTPEQFDSFVFGLHSRFRSHSWNMFLLGEARSDVFGGIPFGGEATQGMERFPYNTLNAENPGISGFGDLYQNINQMNLFISRTLHTDVLTESARNYYLGQVYGLRAYYMYQLYRSWGDVVFTEEPSLGFEVGKLAKAATPAAEIFEQVKKDIESSLSYFGSDYTIKEKKSLWSKAATLMLKADVYLWSAHRDGGEGDARTAKNALVDIQNNISRSNLDLMDTYQGVFAYDNKGNKEIIFTIHNELFEYNLWNGNNDLFPQADYLGKFYNADGTLINTSVENNFGIMRLMVKLENFKKFLPGDTRRDVTLKDVYNKVENGKLELVGVYPHKYWGVMNGSTRVRCDDYPIYRYSDLLLMLAEAKVLLGEDPATEINRVRRRAFGDAYDASTVGFPNQEVDKRPADAVLQERLFEFMLEGKRWYDLRRFGDSYVLDYTPAEPARLLWPINQGALTNNPLLKQTVGY,glycan array binding signal (z-score),[1],-0.492
same,glycan array binding signal (z-score),[2],-0.156
same,glycan array binding signal (z-score),[3],-0.387
same,glycan array binding signal (z-score),[4],-0.243
same,glycan array binding signal (z-score),[5],0.165
same,glycan array binding signal (z-score),[6],-0.12
same,glycan array binding signal (z-score),[7],-0.417
same,glycan array binding signal (z-score),[8],5.16
same,glycan array binding signal (z-score),[9],-0.075
same,glycan array binding signal (z-score),[10],-0.156
same,glycan array binding signal (z-score),[11],-0.184
same,glycan array binding signal (z-score),[12],1.16
same,glycan array binding signal (z-score),[13],0.012
same,glycan array binding signal (z-score),[14],-0.583
same,glycan array binding signal (z-score),[15],0.367
same,glycan array binding signal (z-score),[16],-0.19
same,glycan array binding signal (z-score),[17],0.013
same,glycan array binding signal (z-score),[18],0.207
same,glycan array binding signal (z-score),[19],0.336
same,glycan array binding signal (z-score),[20],-0.371
same,glycan array binding signal (z-score),[21],-0.344
same,glycan array binding signal (z-score),[22],-0.161
same,glycan array binding signal (z-score),[23],0.05
same,glycan array binding signal (z-score),[24],0.209
same,glycan array binding signal (z-score),[25],-0.226
same,glycan array binding signal (z-score),[26],-0.109
same,glycan array binding signal (z-score),[27],-0.284
same,glycan array binding signal (z-score),[28],-0.101
same,glycan array binding signal (z-score),[29],-0.482
same,glycan array binding signal (z-score),[30],-0.348
